# Data from PubChem BioAssay AID1346428 (National Center for Advancing Translational Sciences (NCATS), 2018).
# The whole screen tested about 48,000 compounds, of which about 1,200 (2.5%) were called active. Roughly 2% stayed inconclusive and do not appear here.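 How the source made its calls: active means activation of at least 60% and not above a set upper limit (about 1 call in 100 departs from these limits); inconclusive means activation of 40% to 60%, or above that upper limit; inactive means activation under 40%.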 The list shows a part of the results.
# Target: Probable G-protein coupled receptor 32 (Homo sapiens) (UniProt O75388)
# Experiment: qHTS for Agonists of Human Resolvin D1 Receptor DRV1; further: 0% is about no effect
# Details: CHO-K1 GPR32 beta-arrestin PathHunter luminescence, 90 min; at 76.9 µM; hits give high values; zero percent set by DMSO-only wells
# Summary of the method: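 Using DMSO wells as EC0, agonist-induced signal was taken as chemiluminescence from beta-Gal reconstituted upon beta-arrestin recruitment to GPR32 in CHO-K1 cells after 90 min compound treatment.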
# Chain of UniProt O75388 (O75388 whole entry, looked up): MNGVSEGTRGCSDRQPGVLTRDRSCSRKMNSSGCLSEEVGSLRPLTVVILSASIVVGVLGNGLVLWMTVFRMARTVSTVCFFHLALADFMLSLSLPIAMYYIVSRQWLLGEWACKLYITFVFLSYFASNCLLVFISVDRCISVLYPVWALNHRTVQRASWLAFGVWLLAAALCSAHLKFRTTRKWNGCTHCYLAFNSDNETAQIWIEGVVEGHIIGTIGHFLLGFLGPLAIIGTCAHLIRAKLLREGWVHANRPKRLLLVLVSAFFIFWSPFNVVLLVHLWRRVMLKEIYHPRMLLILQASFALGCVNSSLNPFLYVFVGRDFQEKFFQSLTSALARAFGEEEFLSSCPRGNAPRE
row,Compound,activation
1,O=C(NCc1ccc2c(c1)CCN2C(=O)c1ccccc1)c1ccco1,inactive: -27.3%
2,Cc1ccc(NC(=O)c2oc3ccc(S(=O)(=O)N4CCC5(CC4)OCCO5)cc3c2C)c(C)c1,inactive: 24%
3,COCCn1c(SCC(=O)Nc2ccc(C(F)(F)F)cc2)nc2c([nH]c3ccccc32)c1=O,inactive: -36.1%
4,COc1cccc(N2CCN(C(=O)c3cc4c(=O)n(Cc5ccco5)ccc4nc3C)CC2)c1,inactive: -30.3%
5,O=C(NCc1ccccc1Cl)c1ccc(NC(=O)N2CCSc3ncccc32)cc1,inactive: -13.7%
6,CCN1CCN(CCCNC(=O)c2ccc3nc(Cc4ccccc4)oc3c2)CC1,inactive: -19.4%
7,COc1ccc(N2CCN(C(=O)c3cc(S(=O)(=O)N4CCC(C)CC4)cn3C)CC2)cc1,inactive: -0.755%
8,O=C(NCC(c1ccc2c(c1)OCO2)N1CCOCC1)c1c(F)cccc1F (configuration not stated),inactive: -19.8%
9,COc1ccc(-n2ccnc(NCc3ccc(C)cc3)c2=O)cc1OC,active: 64.8%
10,Cc1cccc(N2CCN(c3nc4ccc(C)cc4n4cnnc34)CC2C)c1 (configuration not stated),inactive: -16.7%
11,CCOC(=O)C12CC1/C(=N/O)c1ccccc1O2 (configuration not stated),inactive: -6.92%
12,CCN(C(=O)C1CCN(c2ncnc3c2nc2n3CCCCC2)CC1)c1cccc(Cl)c1,inactive: -9.58%
13,COc1ccc(N(CC(=O)N2CCN(c3ccccc3F)CC2)S(=O)(=O)c2c(C)n[nH]c2C)cc1,inactive: -0.35%
14,Cc1cccc(NC(=O)CCNS(=O)(=O)c2cccc3nsnc23)c1C,inactive: 19.5%
15,CCn1cc(C(=O)NCCc2ccc(Cl)cc2)c(=O)c2cc(S(=O)(=O)N3CCC(C)CC3)ccc21,inactive: -25.7%
16,O=C(NC1CCCCC1)c1ccc2c(c1)N(Cc1ccc(Cl)cc1)C(=O)c1ccccc1S2=O (configuration not stated),inactive: -17.8%
17,O=C(c1ccc(F)cc1)n1nc(-c2ccccc2)nc1NCc1ccco1,inactive: -10.6%
18,CCOc1ccccc1N(CC)C(=O)c1noc2c1COc1ccc(C)cc1-2,inactive: -16.9%
19,Cc1cccc(C(=O)Nc2ccc(C(=O)OCc3cc(=O)n4nc(CC(C)C)sc4n3)cc2)c1,inactive: -21.8%
20,COc1ccc(NC(=O)/C=C\C(=O)N(c2ccc(C(C)C)cc2)C(C(=O)NCc2ccco2)c2ccc(F)cc2)cc1 (configuration not stated),inactive: -22.8%
21,O=C(c1ccccc1)N(Cc1ccco1)Cc1cccs1,inactive: -12.7%
22,CCn1c(C)c(C)c2cc(C(=O)NCc3cccc(C)c3)ccc21,inactive: -23.1%
23,CCc1ccccc1NC(=O)CCS(=O)(=O)c1cccc2nonc12,inactive: 5.36%
24,COc1ccc(OCC(=O)N2CCN(C(=O)c3cccc(OC)c3)CC2)cc1,inactive: 4.97%
25,COc1cccc(CNC(=O)CCc2c(C)c3cc4c(C)coc4c(C)c3oc2=O)c1,inactive: -5.07%
26,COc1ccccc1NC(=O)c1sc2nc(C)c(C(=O)Nc3ccc(C)cc3C)c(-c3ccc(C)o3)c2c1N,inactive: -16.1%

row,Compound,activation
1,NS(=O)(=O)c1ccc2nc(NC(=O)COc3ccccc3)sc2c1,inactive: -8.25%
2,COCCNC(=O)CSc1nc(-c2ccccc2C)nc2c1c(=O)n(C)c(=O)n2C,inactive: -14.3%
3,Cc1ccc(NC(=O)Cn2c(=O)oc3cc(S(=O)(=O)N4CCCCCC4)ccc32)cc1Cl,inactive: 36%
4,CC(C)C(NS(=O)(=O)c1ccc2c(c1)oc(=O)n2C)C(=O)NCCc1ccc(Cl)cc1 (configuration not stated),inactive: 13.6%
5,CCOc1ccc(Nc2c(S(=O)(=O)c3ccccc3)cnc3ccccc23)cc1,inactive: -52.2%
6,Cc1ccc2cccc(NC(=O)c3ccc(-c4cccc(Cl)c4)o3)c2n1,inactive: 10.6%
7,CCCN(CCC)C(=O)c1cc2c(=O)n3cccc(C)c3nc2n1C,inactive: -16.5%
8,Cc1ccc(NC(=O)c2nc(S(C)(=O)=O)ncc2N(Cc2ccco2)Cc2ccco2)cc1C,inactive: -14.6%
9,Cc1ccc(NC(=O)c2c(C)oc3ccc(O)c(CN4CCCCC4)c23)c(C)c1,inactive: -1.5%
10,Cc1ccc(-c2nnc(Nc3ccc(S(N)(=O)=O)cc3)c3ccccc23)cc1S(=O)(=O)N1CCCCC1,inactive: 12.5%
11,CCC(=O)N1CCc2cc(Br)cc(S(=O)(=O)CCC(=O)N(CC)Cc3ccccc3)c21,inactive: -11.3%
12,CCOCCCNC(=O)C(c1ccc(Cl)cc1)N(Cc1cccs1)C(=O)c1ccc(NC(C)=O)cc1 (configuration not stated),inactive: -2.65%
13,Cc1ccc(NC(=O)CN2C(=O)C3(SCC(=O)N3c3ccc(F)c(F)c3)c3ccccc32)c(C)c1 (configuration not stated),inactive: -11.1%
14,CC(C)(Oc1ccc(Cl)cc1)C(=O)Nc1nc2ccc(S(C)(=O)=O)cc2s1,inactive: 13.7%
15,CN(C)c1ccc(C(CNC(=O)c2c(F)cccc2Cl)N2CCOCC2)cc1 (configuration not stated),inactive: -5.73%
16,COc1ccc(-n2c(=O)c3c4c(sc3n3c(SCCC(C)C)nnc23)COC(C(C)C)C4)cc1 (configuration not stated),inactive: -16.1%
17,CC(=O)N1CCc2cc(CNS(=O)(=O)c3ccc(Cl)s3)ccc21,inactive: 3.2%
18,COc1ccc(Cl)cc1NC(=O)NCC1CCN(Cc2ccccc2F)CC1,inactive: -10.4%
19,CCOc1ccc(OCC)c(NS(=O)(=O)c2cc(-c3onc(C)c3C)ccc2OC)c1,inactive: -17.4%
20,COc1cc(OC)cc(C(=O)Nc2ccc3oc(-c4cccc5c(Br)cccc45)nc3c2)c1,inactive: -10.6%
21,CN1C(=O)C2(SCC(=O)N2c2ccc(F)cc2)c2ccccc21 (configuration not stated),inactive: 2.31%
22,COc1cc(NC(=O)c2c(C)oc3ncnc(N4CCCCC4)c23)cc(OC)c1,inactive: -33.5%
23,CN(Cc1ccccc1)C(=O)c1cn(C)c2ccc(S(=O)(=O)N(C)C3CCCCC3)cc2c1=O,inactive: -21.5%
24,CCCS(=O)(=O)c1nc(S(=O)(=O)c2ccc(C)cc2)c(NCc2ccccc2)s1,inactive: -18.6%
25,Cc1ccc2c(c1)c(=O)c1ccccc1n2CCCC(=O)Nc1c(F)cccc1F,inactive: 11.3%
26,CCC(=O)N1CCc2cc(S(=O)(=O)CCC(=O)NCc3cccc(OC)c3)ccc21,inactive: -0.372%
